Here are results for 28 variants from the supplement of paper PMC7125110.

± gives the standard error. This sample is rich in variants without activity.

B1: glmS ribozyme (parent)
chain: AUAAAAGCGCCAGAACUACAGAAAUGUAGUUGACGAGGAGGAGGUUUAUCGAAUUUUCGGCGGAUGCCUCCAAA

Details in all cases: with glucosamine-6-phosphate
Variants of B1 are the subject of data set [1]. The data set is described as follows: self-cleavage kobs at 640 uM GlcN6P; higher = faster cleavage; RNA array. A digest of the protocol: (§1)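 Tiles of sequenced MiSeq chips were imaged over ~14 h at 37 °C. On them, barcoded ribozyme variants had been transcribed in situ by E. coli RNA polymerase and were tracked via a hybridised Cy3 probe while glucosamine-6-phosphate (40 μM to 10 mM) in HEPES/KCl/Mg(OAc)2 buffer flowed in. Per-tile medians, normalised to baseline and to non-cleaving reference variants, were fit to one- or two-exponential decays for kobs, and weighted Michaelis–Menten fits gave kcat and KM.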

Data set [2] covers variants of B1. Put plainly: self-cleavage kobs at 160 uM GlcN6P; higher = faster cleavage; RNA array. A digest of the protocol: as §1
The variants in data set [3] derive from B1. Put plainly: self-cleavage kobs at 2500 uM GlcN6P; higher = faster cleavage; RNA array. A digest of the protocol:
as §1

Variants of B1 are the subject of data set [4]. Put plainly: self-cleavage kobs at 10000 uM GlcN6P; higher = faster cleavage; RNA array. The procedure, abridged: as §1

Consider G32A C67A, for which the “self-cleavage kobs at 640 uM GlcN6P” value with glucosamine-6-phosphate [1] was found to be 0.000168 ± 3.4e-05 s⁻¹. Besides, in the data set with glucosamine-6-phosphate [2], the “self-cleavage kobs at 160 uM GlcN6P” value was 5.05e-05 ± 1.6e-05 s⁻¹. Further, the “self-cleavage kobs at 2500 uM GlcN6P” value in the data set with glucosamine-6-phosphate [3] amounted to 0.000586 ± 0.00011 s⁻¹. Also, the “self-cleavage kobs at 10000 uM GlcN6P” value in the data set with glucosamine-6-phosphate [4] stood at 0.000728 ± 8.2e-05 s⁻¹.

Turning to A14C A15G C34G A39U, in the data set with glucosamine-6-phosphate [1], the “self-cleavage kobs at 640 uM GlcN6P” value is under 1e-05 s⁻¹. Moreover, the “self-cleavage kobs at 2500 uM GlcN6P” value with glucosamine-6-phosphate [3] was under 1e-05 s⁻¹.

As for G41A G51C G63A C67A, the “self-cleavage kobs at 640 uM GlcN6P” value with glucosamine-6-phosphate [1] is under 1e-05 s⁻¹.

In the case of G32A G44U U46C C50G, the “self-cleavage kobs at 640 uM GlcN6P” value in the data set with glucosamine-6-phosphate [1] was under 1e-05 s⁻¹.

On to C16A A36U A48G, for which the “self-cleavage kobs at 640 uM GlcN6P” value with glucosamine-6-phosphate [1] is under 1e-05 s⁻¹. For the same variant, the “self-cleavage kobs at 160 uM GlcN6P” value with glucosamine-6-phosphate [2] was under 1e-05 s⁻¹. Also, the “self-cleavage kobs at 10000 uM GlcN6P” value in the data set with glucosamine-6-phosphate [4] is under 1e-05 s⁻¹.

For A14C G40C C58A G66U, the “self-cleavage kobs at 640 uM GlcN6P” value with glucosamine-6-phosphate [1] was under 1e-05 s⁻¹. Besides, in the data set with glucosamine-6-phosphate [4], the “self-cleavage kobs at 10000 uM GlcN6P” value is under 1e-05 s⁻¹.

As to A15C U49C C58G C61A, the “self-cleavage kobs at 640 uM GlcN6P” value with glucosamine-6-phosphate [1] is under 1e-05 s⁻¹.

As for G32A A39U G43A U49A, the “self-cleavage kobs at 640 uM GlcN6P” value with glucosamine-6-phosphate [1] was under 1e-05 s⁻¹. Further, in the data set with glucosamine-6-phosphate [3], the “self-cleavage kobs at 2500 uM GlcN6P” value is under 1e-05 s⁻¹.

With A33G C34G, the “self-cleavage kobs at 640 uM GlcN6P” value in the data set with glucosamine-6-phosphate [1] was under 1e-05 s⁻¹. Further, in the data set with glucosamine-6-phosphate [3], the “self-cleavage kobs at 2500 uM GlcN6P” value is under 1e-05 s⁻¹. Besides, the “self-cleavage kobs at 10000 uM GlcN6P” value in the data set with glucosamine-6-phosphate [4] is under 1e-05 s⁻¹.

With U30C G43C C71G, the “self-cleavage kobs at 640 uM GlcN6P” value with glucosamine-6-phosphate [1] was under 1e-05 s⁻¹.

G35A U55G: in the data set with glucosamine-6-phosphate [1], the “self-cleavage kobs at 640 uM GlcN6P” value was under 1e-05 s⁻¹. Besides, in the data set with glucosamine-6-phosphate [2], the “self-cleavage kobs at 160 uM GlcN6P” value was under 1e-05 s⁻¹. In the data set with glucosamine-6-phosphate [3], the “self-cleavage kobs at 2500 uM GlcN6P” value was under 1e-05 s⁻¹.

Consider G29A A33U G44U, for which, in the data set with glucosamine-6-phosphate [1], the “self-cleavage kobs at 640 uM GlcN6P” value is under 1e-05 s⁻¹.

Regarding G29C G60U, in the data set with glucosamine-6-phosphate [1], the “self-cleavage kobs at 640 uM GlcN6P” value was under 1e-05 s⁻¹. Besides, in the data set with glucosamine-6-phosphate [2], the “self-cleavage kobs at 160 uM GlcN6P” value was under 1e-05 s⁻¹. Further, in the data set with glucosamine-6-phosphate [3], the “self-cleavage kobs at 2500 uM GlcN6P” value is under 1e-05 s⁻¹. The “self-cleavage kobs at 10000 uM GlcN6P” value in the data set with glucosamine-6-phosphate [4] is under 1e-05 s⁻¹.

Turning to G40U G62C C70A, the “self-cleavage kobs at 640 uM GlcN6P” value with glucosamine-6-phosphate [1] was under 1e-05 s⁻¹.

As to C34G A36G C71U, in the data set with glucosamine-6-phosphate [1], the “self-cleavage kobs at 640 uM GlcN6P” value is under 1e-05 s⁻¹.

As for A33C G35A G60A, in the data set with glucosamine-6-phosphate [1], the “self-cleavage kobs at 640 uM GlcN6P” value is under 1e-05 s⁻¹. In the data set with glucosamine-6-phosphate [3], the “self-cleavage kobs at 2500 uM GlcN6P” value is under 1e-05 s⁻¹.

As to C34G C50G, the “self-cleavage kobs at 640 uM GlcN6P” value with glucosamine-6-phosphate [1] was 0.00014 ± 5.7e-05 s⁻¹. Further, the “self-cleavage kobs at 160 uM GlcN6P” value with glucosamine-6-phosphate [2] worked out at 5.61e-05 ± 2.4e-05 s⁻¹. For the same variant, the “self-cleavage kobs at 2500 uM GlcN6P” value with glucosamine-6-phosphate [3] stood at 9.6e-05 ± 3.6e-05 s⁻¹.

Take G29A U30G A52G: in the data set with glucosamine-6-phosphate [1], the “self-cleavage kobs at 640 uM GlcN6P” value was 7.23e-05 ± 1.9e-05 s⁻¹. Further, the “self-cleavage kobs at 2500 uM GlcN6P” value with glucosamine-6-phosphate [3] stood at 0.000399 ± 9.4e-05 s⁻¹.

As for G32A G51C, in the data set with glucosamine-6-phosphate [1], the “self-cleavage kobs at 640 uM GlcN6P” value is under 1e-05 s⁻¹. The “self-cleavage kobs at 160 uM GlcN6P” value in the data set with glucosamine-6-phosphate [2] was under 1e-05 s⁻¹. For the same variant, in the data set with glucosamine-6-phosphate [3], the “self-cleavage kobs at 2500 uM GlcN6P” value is under 1e-05 s⁻¹.

G35U U56A: the “self-cleavage kobs at 640 uM GlcN6P” value with glucosamine-6-phosphate [1] is under 1e-05 s⁻¹. In addition, in the data set with glucosamine-6-phosphate [2], the “self-cleavage kobs at 160 uM GlcN6P” value was under 1e-05 s⁻¹. The “self-cleavage kobs at 10000 uM GlcN6P” value with glucosamine-6-phosphate [4] was under 1e-05 s⁻¹.

With G29C G51U, the “self-cleavage kobs at 640 uM GlcN6P” value in the data set with glucosamine-6-phosphate [1] is under 1e-05 s⁻¹.

Consider A14C G43U U49A C50G, for which the “self-cleavage kobs at 640 uM GlcN6P” value in the data set with glucosamine-6-phosphate [1] was under 1e-05 s⁻¹. Further, the “self-cleavage kobs at 2500 uM GlcN6P” value with glucosamine-6-phosphate [3] is under 1e-05 s⁻¹.

For the variant A15U G44A A48C C50G G59A, in the data set with glucosamine-6-phosphate [1], the “self-cleavage kobs at 640 uM GlcN6P” value was under 1e-05 s⁻¹. In the data set with glucosamine-6-phosphate [3], the “self-cleavage kobs at 2500 uM GlcN6P” value was under 1e-05 s⁻¹.

Take G35U G41A A64G: in the data set with glucosamine-6-phosphate [1], the “self-cleavage kobs at 640 uM GlcN6P” value was under 1e-05 s⁻¹. For the same variant, the “self-cleavage kobs at 2500 uM GlcN6P” value with glucosamine-6-phosphate [3] is under 1e-05 s⁻¹.

As for G35U A39U G60U, the “self-cleavage kobs at 640 uM GlcN6P” value with glucosamine-6-phosphate [1] was under 1e-05 s⁻¹. The “self-cleavage kobs at 2500 uM GlcN6P” value with glucosamine-6-phosphate [3] is under 1e-05 s⁻¹.

Regarding A14G G40A G41U G66A, the “self-cleavage kobs at 640 uM GlcN6P” value with glucosamine-6-phosphate [1] worked out at 0.000149 ± 3.6e-05 s⁻¹. For the same variant, in the data set with glucosamine-6-phosphate [3], the “self-cleavage kobs at 2500 uM GlcN6P” value came to 0.000356 ± 9.3e-05 s⁻¹. In the data set with glucosamine-6-phosphate [4], the “self-cleavage kobs at 10000 uM GlcN6P” value was determined as 0.000645 ± 0.0001 s⁻¹.

With G13A U31A G32A C50G C67G, in the data set with glucosamine-6-phosphate [1], the “self-cleavage kobs at 640 uM GlcN6P” value was 4.97e-05 ± 2.2e-05 s⁻¹.

As to A15G U47C G63A, the “self-cleavage kobs at 640 uM GlcN6P” value with glucosamine-6-phosphate [1] was under 1e-05 s⁻¹. The “self-cleavage kobs at 160 uM GlcN6P” value in the data set with glucosamine-6-phosphate [2] was under 1e-05 s⁻¹. Moreover, the “self-cleavage kobs at 2500 uM GlcN6P” value with glucosamine-6-phosphate [3] is under 1e-05 s⁻¹.
